# Measured values reported in PubChem BioAssay AID1345082 (National Center for Advancing Translational Sciences (NCATS), 2018).
# About 4,000 (4.3%) of roughly 94,000 compounds were called active. The inconclusive results got no clear call from the source; some entries with a clear call stand among them for comparison. The call rests on the fitted dose curve; in most records, active means well fitted inhibition curve with a large enough effect; inconclusive means small, poorly fitted or top-dose-only effect; inactive means no such curve, though single readings can be large or run the other way. A potency beside an inconclusive call is a rough fit, not a confirmed value.
# Test: Cytotoxic Profiling in NIH 3T3 Cell Line of Diverse Libraries Using Quantitative High-Throughput Screening; further: nearly all actives have a fitted effect of over 55% in size
# Conditions: NIH 3T3 viability, CellTiter-Glo ATP luminescence, 48-72 h; series mostly up to 96.7 µM
# Outline: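 Luminescent ATP readout (CellTiter-Glo, 10 min RT) after 48 or 72 hr compound exposure of NIH 3T3 cells seeded at 400 cells/well in 1536-well format; quantitative HTS.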
# Potency means the concentration at half of the fitted maximal effect; tags describe the fitted curve by direction and shape.
row,SMILES,Potency
1,CCc1nc(C)sc1C(=O)N1CCCC(c2[nH]ncc2-c2ccccc2)C1 (stereo not given),"inconclusive: 44.7 µM [inhibitor, partial curve, poor fit]"
2,COc1ccccc1-c1ccc(CN2CCC(N[S+](=O)([O-])c3c(C)noc3C)C2)cc1 (stereo not given),"inconclusive: 44.7 µM [inhibitor, partial curve, poor fit]"
3,Cc1ccc(-c2noc([C@@H]3C[C@H](NC(=O)CC(C)(C)C)CN3C)n2)cc1,"inconclusive: 126 µM [inhibitor, single point]"
4,CC(C)CNc1ccc2c(n1)C(C)(C(=O)NCCc1cnc[nH]1)CN(Cc1ccccc1)C2 (stereo not given),active: 31.6 µM
5,CN(C)c1ccc(C(=O)N[C@H]2C[C@@H](c3nc(-c4ccc5c(c4)OCO5)no3)N(C)C2)cc1,"inconclusive: 50.1 µM [inhibitor, partial curve, poor fit]"
6,CCc1c(C)cc(C(=O)N[C@@H]2[C@@H](Cc3ccccc3)[C@H]3OCC[C@@H]23)c(=O)n1C,"inconclusive: 89.1 µM [inhibitor, single point]"
7,CCNC(=O)N(C1CC1)C1CCOC2(CCN(C(=O)Cc3ccsc3)CC2)C1 (stereo not given),"inconclusive: 70.8 µM [inhibitor, single point]"
8,COc1ccccc1-c1cnc(Nc2cccnc2OC)c2c1CCO2,"inconclusive: 39.8 µM [inhibitor, partial curve]"
9,COc1ccc(CC(=O)NC2CCN(c3cc(-c4ccccc4)[nH]n3)CC2)cc1,"inconclusive: 28.2 µM [inhibitor, partial curve]"
10,O=C1Nc2ccc(-c3ccccc3F)cc2C(=O)N2CCN(C(=O)c3cccnc3)C[C@H]12,"inconclusive: 63.1 µM [inhibitor, full curve, poor fit]"
11,O=S(=O)(NCC1CCOCC1)c1ccc(F)c(F)c1,inactive
12,COc1cccc(CC(=O)N2CCCCCNC(=O)[C@@H]3CCC[C@@H]32)c1,inactive
13,O=C(O)CCn1ncc2cc(OCC3CCN(C(=O)CCC(F)(F)F)CC3)ccc21,active: 12.6 µM
14,O=C(CN1C(=O)NC(c2ccc(Cl)cc2)C2=C1COC2=O)NCCc1ccc(Cl)cc1 (stereo not given),"inconclusive: 39.8 µM [inhibitor, partial curve, poor fit]"
15,CCNC(=O)N1CC2=CC(C)(C)COc3ccc(OC)c(c32)C1C(=O)OCC (stereo not given),inactive
16,Cc1ccc2nc3n(c2c1)[C@@H](CNCc1ccccc1)COC3,"inconclusive: 56.2 µM [inhibitor, partial curve, poor fit]"
17,Cc1nn(-c2ccccc2)c2c1C(C(C)C)N(C1CCN(C(=O)c3ccc(F)cc3)C1)C2=O (stereo not given),"inconclusive: 39.8 µM [inhibitor, partial curve, poor fit]"
18,CCCN(CC1CCOC1)C(=O)Nc1ccc(C)c(Cl)c1 (stereo not given),inactive
19,CCOc1ccccc1OCCN(C)C(=O)c1cccnc1SC,"inconclusive: 89.1 µM [inhibitor, partial curve, poor fit]"
20,O=C(NCCCc1ccccc1)c1n[nH]c2c1CN(C(=O)c1ccc3c(c1)OCO3)CC2,active: 35.5 µM

row,SMILES,Potency
1,Cc1nn(-c2ccccc2)c2c1C(C1CC1)N(C1CCN(C(=O)c3ccccc3)C1)C2=O (stereo not given),active: 14.1 µM
2,CC1CCCN(C(=O)Cc2cccn2-c2ccc(F)cc2)C1 (stereo not given),inactive
3,COc1ccc(OC2CCN(C3CCCC3)CC2)c(C(=O)NCCCN2CCCC2=O)c1,inactive
4,COc1ccc(-c2nc(N3CCOCC3)cc3c2CN(Cc2cnn(C)c2)C3=O)cc1OC,"inconclusive: 50.1 µM [inhibitor, partial curve, poor fit]"
5,O=[S+]([O-])(c1ccc(Cl)cc1)c1nnn2c1nc(NC1CCCC1)c1ccccc12,"inconclusive: 44.7 µM [inhibitor, partial curve, poor fit]"
6,Cc1cc(CNC(=O)c2ccncc2)c2[nH]c(-c3ccccc3)c(C)c2c1,active: 31.6 µM
7,CCNC(=O)c1cccc2c1CCN2C(=O)Nc1ccc(C)cc1,"inconclusive: 44.7 µM [inhibitor, partial curve, poor fit]"
8,CSCC(=O)N[C@H]1CCN2C(=O)c3cc(-c4ccccc4F)ccc3NC(=O)[C@H]12,inactive
9,CC(=O)c1cccc(NC(=O)O[C@@H]2CO[C@H]3[C@@H]2OC[C@@H]3NC(=S)Nc2cccc3ccccc23)c1,"inconclusive: 44.7 µM [inhibitor, partial curve, poor fit]"
10,c1ccc(-c2cnc3n[nH]c(-c4ccccc4)c3n2)cc1,"inconclusive: 56.2 µM [inhibitor, partial curve, poor fit]"
11,COc1ccc(-c2noc([C@@H]3CCCN3C(=O)c3cc(C)cc(C)c3)n2)cc1,"inconclusive: 22.4 µM [inhibitor, full curve]"
12,CCOc1ccccc1NC(=O)[C@H]1CCC[C@H]1NC(=O)c1ccc(OC)cc1,inactive
13,COc1ccc(C(=O)Nc2nc3c(s2)C[C@@H]2[C@](C)(CO)[C@H](O)CC[C@@]2(C)[C@@H]3CC(=O)NC2CCCC2)cc1,"inconclusive: 44.7 µM [inhibitor, partial curve, poor fit]"
14,CCC1(N2CCN(S(=O)(=O)c3ccc4c(c3)CCCC4)CC2)CCN(C(=O)C(C)C)C1 (stereo not given),"inconclusive: 44.7 µM [inhibitor, partial curve, poor fit]"
15,O=C(Cn1ncc2ccccc2c1=O)NC1CCCc2c1[nH]c1ccccc21 (stereo not given),inactive
16,CCS(=O)(=O)Nc1ccc(C2(C(=O)NCc3cc(F)cc(F)c3)CCCCC2)cc1,inactive
17,Cc1nnc2ccc(N3CCN(C(=O)Cc4ccccc4Cl)CC3)nn12,"inconclusive: 44.7 µM [inhibitor, partial curve, poor fit]"
18,N#Cc1ccc(C(=O)N2CCC(Cc3nc(-c4ccccc4)n[nH]3)C2)cc1 (stereo not given),"inconclusive: 50.1 µM [inhibitor, partial curve, poor fit]"
19,Cc1ccccc1-c1nc(N2CCOCC2)cc2c1CN(c1ccccc1)C2=O,"inconclusive: 31.6 µM [inhibitor, partial curve, poor fit]"
20,O=C(COc1ccccc1)NC1CCCc2c1[nH]c1c(Cl)cccc21 (stereo not given),"inconclusive: 44.7 µM [inhibitor, partial curve, poor fit]"
